In publication PMC6212790:
The list shows a part of the results. At the low end of the ranking, values are background and their order means little.

These sequences were tested against T1, GST-Rok-C97-191 (UniProt O34857) (assay: protein binding microarray). Details: Rok is a gene silencer of Bacillus subtilis; high values mean tight binding; most listed sequences are background and not binding sites; double strand, one strand shown.
T1 sequence: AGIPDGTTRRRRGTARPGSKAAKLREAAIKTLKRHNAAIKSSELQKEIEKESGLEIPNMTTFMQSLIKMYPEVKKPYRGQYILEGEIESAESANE
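Also: rank score from −0.5 (least bound) to 0.5 (best bound).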

Sequence	binding signal [E-score]
ATAGGTTC	0.2
GACACGCC	-0.0522
AAAGATCG	-0.000347
GAGGTAGA	0.334
ATACAATA	0.327
CACGGTAC	0.0962
GCGATCGA	0.0939
ATAAGAAG	0.0784
GTAAAGGA	-0.146
CATGTCTA	-0.0685
AGGATACG	0.0782
ACTGCACT	-0.0818
CGCCCACC	-0.372
CAGCGAAG	-0.168
CAACCTCG	-0.0668
CCACGAAG	-0.214
AGTTCTCA	-0.0628
CGCAGCTA	-0.0864
CAATGCAA	-0.00697
GATGCATA	0.176
CTTTTGGA	-0.152
CGAGAGAC	-0.146

Sequence	binding signal [E-score]
GTTGAGCA	-0.0745
AGTACACT	0.185
CTAGTCGC	0.0993
GAAGTAGA	0.24
CAACTTGC	0.0202
CGGGGCAC	-0.178
ACTTCCAC	-0.0227
GAGCTTCA	-0.178
GCGAGACC	-0.114
CCGTGTGA	-0.245
GGAGGGCA	-0.392
GGCCTATA	0.0686
GAGCAACA	-0.00379
ACACAAGG	-0.241
GTAGTAAC	0.307
ACGATCAG	-0.178
TATATCCA	0.316
ATATGACG	0.0156
CTACGCCA	0.0114
AAGATAGC	0.193
GAACAATA	0.109
AACGAAAC	0.12

Sequence	binding signal [E-score]
AGCTTTGA	0.0387
CAGCTATA	0.211
CCCCATTA	-0.128
GAATACAA	0.306
CCCATTCG	-0.145
ACCTACGC	-0.0344
CATGGCGA	-0.0793
AAGCACTG	-0.256
GTGTCGAA	0.0527
GCTACGTA	0.241
ATTTAACC	0.239
ATACCCTC	-0.00407
CCCTATCG	0.13
AACGCAGG	-0.188
CGCGCCAC	-0.23
ACTAACGA	0.101
CTCCTTTC	-0.151
CCCCAAAA	-0.239
AGCTTACA	-0.133
ACCAACAT	0.157
AACGATTA	-0.0994
GGGCACCA	-0.27

Sequence	binding signal [E-score]
TACAAGAA	0.0958
ATGATCCC	-0.0142
AGAGCAGG	-0.101
GTATAAGA	0.2
GGCAGCAA	-0.0597
AGCCCCAA	-0.167
CGGCAGCC	-0.182
CCCGAAAA	0.0648
CGAGCAAA	-0.00441
ATCCCTTG	-0.112
AGGCTCTC	-0.242
GAGAGGAC	-0.278
GGCGACGA	-0.297
AGGTATTG	0.168
AATGTGGG	0.0924
CTCTTGGC	0.0601
TATTACAA	0.254
CACGGATC	-0.0864
ATTGTCGC	-0.0869
GCAGGAGC	-0.247
